Reference: the RNAGym collection of RNA variant scans (doi:10.1073/pnas.2313332121)
Variants at the background level are over-represented here.

B1: TPR 5TU (parent)
chain: GGAUCUUCUCGAUCUAACAAAAAAGACAAAUCUGCCACAAAGCUUGAGAGCAUCUUCGGAUGCAGAGGCGGCAGCCUUCGGUGGCGCGAUAGCGCCAACGUUCUCAACUAUGACACGCAAAACGCGUGCUCCGUUGAAUGGAGUUUAUCAUG

Variants of: B1
Experiment: polymerase ribozyme fitness, log enrichment relative to wild type (log ratio); higher = more active; in vitro selection for triplet polymerase activity
In short: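 To select mutant libraries of each subunit of a heterodimeric triplet polymerase ribozyme, built by PCR and transcribed, each was annealed with a biotinylated primer, partner subunit and triplets, then incubated frozen at −7 °C. Extended constructs were gel-excised, captured on streptavidin beads and amplified by RT-PCR, in one round carried out in triplicate. Illumina sequencing of input and output libraries kept genotypes with ≥10 input reads and ≥1 read per output. Fitness is the base-2 logarithm of genotype enrichment relative to wild-type enrichment, from inverse-variance-weighted replicate averages.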

Variant	polymerase ribozyme fitness (log ratio)
A22U A89U	0.229
A22U G50C	-2.99
A23C C93G	≤ -4.2
A23C A52C C57U A91G G143U	≤ -4.2
A22U G84A U90G A91G A119U G143A	≤ -4.2
A22C U33A A40G C54U C99G	≤ -4.2
A23C A40G A49G G58C G74A U82G U134A C149A	≤ -4.2
A22C G62U A73U G88U C99U C118A U144C	≤ -4.2
A23C G42C U44A A52C C96U C132U U145G	≤ -4.2
A22U U56A C93G A98G C108A C114G U151A	≤ -4.2
A23C A30U G50A C54A C93G C95U G124A	≤ -4.2
A22G A23G G50U A52C C57U G59U C96A C99U C132A G143C	≤ -4.2
A22U U33A A52G A60G G62A A66G G71U G92C U145C	≤ -4.2
A22G C35U C93G A142C A150G	≤ -4.2
A23C A47G G67A U82A C108A	≤ -4.2
A22C G92C C114U A150C	≤ -4.2
A22U G80A C87U U104G G126C	≤ -4.2
A23C A52G A137C G141C	≤ -4.2
A22U U102G	-2.64
A22U A30U U31C A49C A52C C76A C79U C93G	≤ -4.2
A22G C87G A142C	≤ -4.2

Variant	polymerase ribozyme fitness (log ratio)
A22U C38U C51U U53A C54A C85G	≤ -4.2
A22U G50U G68C C95A U139C	≤ -4.2
A23C A24U C57U G58A U61A C93G C103U C118U	≤ -4.2
A22U U44G U56C G58C G88U G117C	≤ -4.2
A22U C36A G83A U145A	≤ -4.2
A22C G42C C69G A91U	≤ -4.2
A22U C35A C87A A122U	≤ -4.2
A23C A49G C93U U148C	≤ -4.2
A22U A23G A52G G59C C72A C87A G88U C149A	≤ -4.2
A22G U53A A73U A98G U139A	≤ -4.2
A23C A30C G50A A66G C96A A98U G128C	≤ -4.2
A22U C32G A41U G68U U90C G94U C105G	≤ -4.2
A22U U55A A66C U77A C87A	≤ -4.2
A22U C108U	-2.85
A22G C36G G81U A89C A97C C116A	≤ -4.2
A22U A29G G70A	≤ -4.2
A22U U82G C93A G124U C125U	-2.61
A22G G50U U56G G58U C76U A122G	-4.16
A22U U45G C85G G86C G94C A147C	≤ -4.2
A22G C85U U145C A147C A150C	≤ -4.2
A22U C35G G42A C69A C93G A106U C131G	≤ -4.2

Variant	polymerase ribozyme fitness (log ratio)
A22U C85G U102G G140C	≤ -4.2
A23C C36U C57G G58A C85A G136A	≤ -4.2
A23C A39C U53C A60G G67A A119C U139C	≤ -4.2
A22U G74C C118U	≤ -4.2
A22G G83C A98U C114U	-3.19
A22G C72A G86C C87A A110U U127C C132A U146G	≤ -4.2
A22C G74C C85U A91U U101C A106C U139C	≤ -4.2
A22U U55A	-0.43
A22U A115C	-0.374
A22U A23C A24C G48C G67U G86U C95G C96U C116U	≤ -4.2
A22G G34U A49C	≤ -4.2
A23C A47U G50A G128A C129U	≤ -4.2
A22G G84U U127G	≤ -4.2
A23C A29G C57U G81C G86A A97C	≤ -4.2
A23C A49C A60G G68U C72U C123G G124A G143C	≤ -4.2
A23C A29C U31G U33C C95U C96U A107U U127C A138C	≤ -4.2
A22G G71C A73C A119G	≤ -4.2
A22U A30U C95U U134A	≤ -4.2
A22G C93G C105G A110G G136U	≤ -4.2
A22G G50C G71U C76A C85U G100C U144G	≤ -4.2
A22G G117A	1.13

Variant	polymerase ribozyme fitness (log ratio)
A23C A41C A66G G71A G133A	≤ -4.2
A22U C32A G59U G71A U82C C95U C96G U148C	≤ -4.2
A22C U61C G80A A119U C125A	-2.69
A23C A28U C32U U135C	≤ -4.2
A22G C69A C87G C129A U130A	≤ -4.2
A22U A39U U44G C51A G141C U146C A150G	≤ -4.2
A22U A26G C85A C95U A115U	≤ -4.2
A23C A60U G84U C105A	≤ -4.2
A23C A29C C54A G59C G67U G74A U130C A142C	≤ -4.2
A22G G80A C87G A89U G133U C149G	≤ -4.2
A22U U56A A106U A107C A142G	≤ -4.2
A22G U33G C51A A66G C76A G94U C95G A98U U135A	≤ -4.2
A22U G50U C96G	0.467
A23C C51U U53A C99U G140U U144C	≤ -4.2
A22U C125U	-0.442
A22G A23C A98G A106C	≤ -4.2
A22G A23G A24C C63G G83A C103A A107U	≤ -4.2
A23C A29G C38G G88U C116U G133C	≤ -4.2
A22G A52U C79A C93A G100C G143U U144A U146A A150U	≤ -4.2
A22C G50A G62A A66G C79A G84U	≤ -4.2
